Laboratory results: the supplement of paper PMC8728848
The other results are listed elsewhere or left out.

How the values were obtained:
Test in all cases: glycan array binding signal (z-score within array); higher = stronger binding
Details in all cases: glycan notation: IUPAC condensed, linker removed
[1] = target: Gal(b1-3)GlcNAc(b1-3)Gal(b1-4)GlcNAc(b1-2)Man(a1-3)[Gal(b1-3)GlcNAc(b1-3)Gal(b1-4)GlcNAc(b1-2)Man(a1-6)]Man(b1-4)GlcNAc(b1-4)GlcNAc
In short: (§1)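 The binding signal is a Z-score computed within each array and averaged over linkers. Arrays of the same protein sequence at different concentrations or buffers were also averaged together. Data originate from 3228 arrays in the Consortium for Functional Glycomics database, kept only where the protein sequence was available.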

[2] = target: Gal(b1-3)GlcNAc(b1-3)Gal(b1-4)GlcNAc(b1-2)[Gal(b1-3)GlcNAc(b1-3)Gal(b1-4)GlcNAc(b1-6)]Man(a1-6)[Gal(b1-3)GlcNAc(b1-3)Gal(b1-4)GlcNAc(b1-2)Man(a1-3)]Man(b1-4)GlcNAc(b1-4)[Fuc(a1-6)]GlcNAc
In short: as §1

[3] = target: Gal(b1-3)GlcNAc(b1-3)Gal(b1-4)GlcNAc(b1-3)Gal(b1-4)GlcNAc(b1-2)[Gal(b1-3)GlcNAc(b1-3)Gal(b1-4)GlcNAc(b1-3)Gal(b1-4)GlcNAc(b1-6)]Man(a1-6)[Gal(b1-3)GlcNAc(b1-3)Gal(b1-4)GlcNAc(b1-3)Gal(b1-4)GlcNAc(b1-2)Man(a1-3)]Man(b1-4)GlcNAc(b1-4)[Fuc(a1-6)]GlcNAc
In short: as §1

[4] = target: Gal(b1-3)GlcNAc(b1-3)Gal(b1-4)GlcNAc(b1-6)[Gal(b1-3)GlcNAc(b1-3)]Gal(b1-4)Glc
In short: as §1

[5] = target: Gal(b1-3)GlcNAc(b1-3)Gal(b1-4)[Fuc(a1-3)]GlcNAc
In short: as §1

[6] = target: Gal(b1-3)GlcNAc(b1-3)Gal(b1-4)[Fuc(a1-3)]GlcNAc(b1-6)[Gal(b1-3)GlcNAc(b1-3)]Gal(b1-4)Glc
In short: as §1

[7] = target: Gal(b1-3)GlcNAc(b1-3)GalNAc
In short: as §1

[8] = target: Gal(b1-3)GlcNAc(b1-6)Gal(b1-4)GlcNAc
In short: as §1

[9] = target: Gal(b1-3)GlcNAc(b1-6)GalNAc
In short: as §1

[10] = target: Gal(b1-3)GlcNAc(b1-6)[Gal(b1-3)]GalNAc
In short: as §1

Gal(b1-3)GlcNAc6S = target: Gal(b1-3)GlcNAc6S
In short: as §1

[11] = target: Gal(b1-3)[Fuc(a1-4)]GlcNAc
In short: as §1

[12] = target: Gal(b1-3)[Fuc(a1-4)]GlcNAc(b1-2)Man
In short: as §1

[13] = target: Gal(b1-3)[Fuc(a1-4)]GlcNAc(b1-2)Man(a1-3)[Gal(b1-3)[Fuc(a1-4)]GlcNAc(b1-2)Man(a1-6)]Man(b1-4)GlcNAc(b1-4)[Fuc(a1-6)]GlcNAc
In short: as §1

[14] = target: Gal(b1-3)[Fuc(a1-4)]GlcNAc(b1-3)Gal(b1-3)[Fuc(a1-4)]GlcNAc
In short: as §1

[15] = target: Gal(b1-3)[Fuc(a1-4)]GlcNAc(b1-3)Gal(b1-4)[Fuc(a1-3)]GlcNAc
In short: as §1

[16] = target: Gal(b1-3)[Fuc(a1-4)]GlcNAc(b1-6)GalNAc
In short: as §1

[17] = target: Gal(b1-3)[GlcNAc(b1-6)]GalNAc
In short: as §1

[18] = target: Gal(b1-3)[Neu5Ac(a2-6)]GalNAc
In short: as §1

[19] = target: Gal(b1-3)[Neu5Ac(a2-6)]GlcNAc(b1-4)Gal(b1-4)Glc
In short: as §1

[20] = target: Gal(b1-3)[Neu5Ac(b2-6)]GalNAc
In short: as §1

Gal(b1-4)Gal = target: Gal(b1-4)Gal
In short: as §1

[21] = target: Gal(b1-4)GalNAc(a1-3)[Fuc(a1-2)]Gal(b1-4)GlcNAc
In short: as §1

[22] = target: Gal(b1-4)GalNAc(b1-3)[Fuc(a1-2)]Gal(b1-4)GlcNAc
In short: as §1

Gal(b1-4)Glc = target: Gal(b1-4)Glc
In short: as §1

Gal(b1-4)Glc6S = target: Gal(b1-4)Glc6S
In short: as §1

Gal(b1-4)GlcNAc = target: Gal(b1-4)GlcNAc
In short: as §1

[23] = target: Gal(b1-4)GlcNAc(a1-6)Gal(b1-4)GlcNAc
In short: as §1

Gal(b1-4)GlcNAc(b1-2)Man = target: Gal(b1-4)GlcNAc(b1-2)Man
In short: as §1

[24] = target: Gal(b1-4)GlcNAc(b1-2)Man(a1-3)Man(b1-4)GlcNAc(b1-4)GlcNAc
In short: as §1

[25] = target: Gal(b1-4)GlcNAc(b1-2)Man(a1-3)[Gal(b1-4)GlcNAc(b1-2)Man(a1-6)]Man(b1-4)GlcNAc(b1-4)GlcNAc
In short: as §1

[26] = target: Gal(b1-4)GlcNAc(b1-2)Man(a1-3)[Gal(b1-4)GlcNAc(b1-2)Man(a1-6)]Man(b1-4)GlcNAc(b1-4)[Fuc(a1-6)]GlcNAc
In short: as §1

[27] = target: Gal(b1-4)GlcNAc(b1-2)Man(a1-3)[Gal(b1-4)GlcNAc(b1-2)Man(a1-6)][Gal(b1-4)GlcNAc(b1-4)]Man(b1-4)GlcNAc(b1-4)[Fuc(a1-6)]GlcNAc
In short: as §1

[28] = target: Gal(b1-4)GlcNAc(b1-2)Man(a1-3)[Gal(b1-4)GlcNAc(b1-2)Man(a1-6)][GlcNAc(b1-4)]Man(b1-4)GlcNAc(b1-4)[Fuc(a1-6)]GlcNAc
In short: as §1

[29] = target: Gal(b1-4)GlcNAc(b1-2)Man(a1-3)[GlcNAc(b1-2)Man(a1-6)]Man(b1-4)GlcNAc(b1-4)GlcNAc
In short: as §1

[30] = target: Gal(b1-4)GlcNAc(b1-2)Man(a1-3)[GlcNAc(b1-4)][Gal(b1-4)GlcNAc(b1-2)Man(a1-6)]Man(b1-4)GlcNAc(b1-4)GlcNAc
In short: as §1

[31] = target: Gal(b1-4)GlcNAc(b1-2)Man(a1-3)[Man(a1-6)]Man(b1-4)GlcNAc(b1-4)GlcNAc
In short: as §1

[32] = target: Gal(b1-4)GlcNAc(b1-2)Man(a1-6)Man(b1-4)GlcNAc(b1-4)GlcNAc
In short: as §1

B1: Sebin2 (Coprinopsis cinerea), A8PE78 (protein)
chain: MTTPFYAYCHNVQDDNTWRLGLVFANRSTADEWWRAISEATSSIPITKSITRVTPQYYTHDIRVWNMYNFFVDGNIKSISDKFRGRLFITLEYDRSGRGVSVFPPLHIVDHVSGNWYYIRSKTAPHLFWFYDETRNAIYASKEKRTRFKVSIRNPSPQTPKDAIMINSDDVVIHIKESLYVGVDSYLGHIIPTRAYRTFKFGELEGGAIAGIEVAENAEERCSSTFDGASLYFVGPDSSSPGEPWELV
glycan array binding signal (z-score) [1]: -0.414 | glycan array binding signal (z-score) [2]: -0.058 | glycan array binding signal (z-score) [3]: 0.29 | glycan array binding signal (z-score) [4]: -0.117 | glycan array binding signal (z-score) [5]: -0.448 | glycan array binding signal (z-score) [6]: -0.311 | glycan array binding signal (z-score) [7]: -0.075 | glycan array binding signal (z-score) [8]: -0.138 | glycan array binding signal (z-score) [9]: 0.139 | glycan array binding signal (z-score) [10]: -0.041 | glycan array binding signal (z-score) (Gal(b1-3)GlcNAc6S): -0.154 | glycan array binding signal (z-score) [11]: -0.347 | glycan array binding signal (z-score) [12]: 0.366 | glycan array binding signal (z-score) [13]: 0.213 | glycan array binding signal (z-score) [14]: -0.426 | glycan array binding signal (z-score) [15]: -0.4 | glycan array binding signal (z-score) [16]: 0.228 | glycan array binding signal (z-score) [17]: -0.208 | glycan array binding signal (z-score) [18]: -0.371 | glycan array binding signal (z-score) [19]: -0.295 | glycan array binding signal (z-score) [20]: -0.199 | glycan array binding signal (z-score) (Gal(b1-4)Gal): 0.383 | glycan array binding signal (z-score) [21]: -0.557 | glycan array binding signal (z-score) [22]: -0.219 | glycan array binding signal (z-score) (Gal(b1-4)Glc): -0.336 | glycan array binding signal (z-score) (Gal(b1-4)Glc6S): 0.512 | glycan array binding signal (z-score) (Gal(b1-4)GlcNAc): -0.292 | glycan array binding signal (z-score) [23]: -0.468 | glycan array binding signal (z-score) (Gal(b1-4)GlcNAc(b1-2)Man): -0.082 | glycan array binding signal (z-score) [24]: -0.087 | glycan array binding signal (z-score) [25]: 0.112 | glycan array binding signal (z-score) [26]: 0.034 | glycan array binding signal (z-score) [27]: -0.619 | glycan array binding signal (z-score) [28]: -0.527 | glycan array binding signal (z-score) [29]: -0.033 | glycan array binding signal (z-score) [30]: -0.154 | glycan array binding signal (z-score) [31]: -0.101 | glycan array binding signal (z-score) [32]: -0.071
